Test results published in PubChem BioAssay AID686971 (National Center for Advancing Translational Sciences (NCATS), 2013).
In all, about 360,000 compounds went through this assay and about 7,500 (2.1%) were called active. Inconclusive results, whose numbers are uncertain, are shown with a selection of clear calls. Calls follow the shape of the dose curve; as a rule, active = well fitted cell-killing curve with a large enough effect; inconclusive = small, poorly fitted or top-dose-only effect, or effect the other way, or another doubt; inactive = no such curve, though single readings can be large or run the other way. Potencies of inconclusive entries are left out as doubtful fits.

Assay: qHTS for induction of synthetic lethality in tumor cells producing 2HG: qHTS for the HT-1080-IDH1KD cell line;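 as to activity, negative = toxicity: 0% = DMSO wells and -100% = cell-free medium wells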
Settings: HT-1080 IDH1 knockdown viability, ATP luminescence, 48 h; activity, negative = toxicity: at 46.1 µM (top of the series) unless noted
How it was run: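 In this qHTS, HT-1080 cells depleted of IDH1 are exposed for 48 h at 37 °C to compound titrations. Toxicity is scored from CellTiter-Glo luminescence, with DMSO as full viability and medium alone as none.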
Potency is read from the fitted curve at half-maximal effect; tags tell the direction and shape of the fitted curve.

| SMILES | Potency | activity, negative = toxicity |
| --- | --- | --- |
| CNc1c2cccc(C)c2nc2c(C(=O)NCCN(C)C)cccc12 | active: 7.31 µM |  |
| CCOC(=O)Nc1ccc2c(c1)N(C(=O)CCN(C)C)c1ccccc1S2 | inactive |  |
| O=C(NCc1ccco1)c1nc2c(nnn2Cc2ccccc2Cl)c(=O)[nH]1 | inconclusive [cytotoxic, single point] |  |
| Cc1c(NC(=S)/C=C2\N(C)c3ccccc3C2(C)C)c(=O)n(-c2ccccc2)n1C | inactive |  |
| CNc1cccc(-c2cccc(C(=O)N3CCOCC3)c2)n1 | inconclusive [rising, partial curve] |  |
| CC1CCN(S(=O)(=O)c2ccc(C(=O)NCc3ccc4c(c3)OCO4)cc2)CC1 | inconclusive [cytotoxic, single point] |  |
| CN(C)c1ccc(Nc2c3c4c(cccc4n(C)c2=O)C(=O)c2ccccc2-3)cc1 | active: 4.61 µM |  |
| CN1C(=O)C(Cl)(Cl)C(=O)c2ccccc21 | inconclusive [cytotoxic, single point] |  |
| NC(=NC(=O)c1ccc(Cl)cc1)N1N=CCC1c1ccccc1 (stereo not given) | inconclusive [cytotoxic, single point] |  |
| COc1cc(NC(=O)COc2ccc(Cl)cc2)ccc1-c1cc2ccccc2oc1=O | inconclusive [cytotoxic, single point] |  |
| O=[N+]([O-])c1ccc(-c2ccc(/C=N/c3c(-c4ccco4)nc4ccccn34)o2)cc1 | inconclusive [cytotoxic, single point] |  |
| Oc1ccc(N=Nc2c(O)ccc3ccccc23)cc1 |  | inconclusive: -47.8% |
| NS(=O)(=O)c1cccc(NS(=O)(=O)c2cccc(C(F)(F)F)c2)c1 | inactive |  |
| CCOC(=O)C(C)(C)N(Cc1ccc(C)cc1)S(=O)(=O)c1ccc(Cl)c([N+](=O)[O-])c1 | inconclusive [cytotoxic, single point] |  |
| O=C(C1CCC1)N1CCc2cc(S(=O)(=O)Nc3ccc4c(c3)OCCO4)ccc21 | inconclusive [cytotoxic, single point] |  |
| Cc1cccc(S(=O)(=O)NC(=O)C2(C)CCN2C(=O)Cc2cc(F)ccc2F)c1 (stereo not given) | inconclusive [rising, single point] |  |
| C[C@@H]1CN([C@H](C)CO)C(=O)CCCn2nncc2CO[C@H]1CN(C)Cc1ccc(O)cc1 | inactive |  |
| O=c1cnnc(SCc2ccc([N+](=O)[O-])cc2)[nH]1 | inactive |  |
| CN(C(=O)CCl)C1CCCc2ccccc21 (stereo not given) | inconclusive [cytotoxic, single point] |  |
| COc1ccc(C(=O)Nc2cnn(Cc3ccc(Cl)cc3)c2)cc1OC | inconclusive [cytotoxic, full curve] |  |
| Clc1nc(NC2CCCCC2)c2cn[nH]c2n1 | inconclusive [cytotoxic, partial curve, poor fit] |  |
| COc1ccc(NC(=O)c2cc(C3CCCCN3C(=O)Cc3ccc(N(C)C)cc3)on2)c(C)c1 (stereo not given) | inactive |  |
| COCc1ccc(CN2CCCC(CCC(=O)NCc3cccc(OC)c3)C2)o1 (stereo not given) | inactive |  |
| Cc1ccc(OC[C@H](O)[C@H](C)NC(C)C)c2c1CCC2 | inconclusive [cytotoxic, single point] |  |
| COc1ccccc1N1CCN(C(=O)c2ccc3[nH]c(C)c(C)c3c2)CC1 | active: 1.3 µM |  |

| SMILES | Potency | activity, negative = toxicity |
| --- | --- | --- |
| Cn1cc(CC(=O)NCCN2CCOCC2)c2ccccc21 | inconclusive [cytotoxic, single point] |  |
| COc1ccc(CSC(=S)NNc2ccccc2)cc1 | active: 13 µM |  |
| CCCN1CCN(C(=O)C2CCN(c3nnc(C)c4c(C)n(-c5ccc(C)cc5)nc34)CC2)CC1 | inconclusive [cytotoxic, single point] |  |
| Cc1ccc(S(=O)(=O)N2C[C@H]3n4c(=O)ccc(=O)n4C[C@H](OC(=O)NCc4ccccc4)[C@@]3(O)C2)cc1 | inconclusive [cytotoxic, single point] |  |
| CC1CCCN(CCOCCOc2ccc(Br)cc2Cl)C1 (stereo not given) | inconclusive [cytotoxic, single point] |  |
| C(=N\c1nccs1)/c1c[nH]c2ccccc12 | inactive |  |
| O=C1[C@H]2[C@@H](c3ccc(C(F)(F)F)cc3)N[C@]3(CCCN(Cc4ccc(C(F)(F)F)cc4)C3=O)[C@H]2C(=O)N1Cc1ccccc1 |  | inconclusive: -31.8% [cytotoxic] |
| COCCNC(=S)NCc1ccc2[nH]c3c(c2c1)CCCC3 | inactive |  |
| COc1cccc(NC(=O)C2CCC(CNS(=O)(=O)c3cccs3)CC2)c1 (stereo not given) | inactive |  |
| O=C(OCCOc1cccc(Cl)c1)c1cc(S(=O)(=O)N2CCCCC2)ccc1N1CCOCC1 | inactive |  |
| O=C(NCc1ccccc1Cl)C1CCN(c2cnccn2)CC1 | inactive |  |
| Cc1onc(-c2ccccc2)c1C(=O)N1CCCN(C(=O)c2c(-c3ccccc3)noc2C)CC1 | inactive |  |
| COc1ccc(C(C(=O)NCCC(C)C)N(CCO)C(=O)c2snc(C(N)=O)c2N)cc1 (stereo not given) | inactive |  |
| COc1ccc(S(=O)(=O)N2CCOc3ccccc32)cc1 | active: 13 µM |  |
| CC[C@@H](C)[C@H](NC(=O)OC(C)(C)C)c1nnc(S(=O)(=O)Cc2cc(C)ccc2C)o1 | active: 10.3 µM |  |
| CCc1cc(C(=O)Nc2cc(Cl)ccc2N2CCN(C)CC2)sc1C | inactive |  |
| COc1cc(C2C=C(c3cccs3)Nc3ncnn32)cc(OC)c1OC (stereo not given) | inconclusive [cytotoxic, full curve, poor fit] |  |
| CCc1nc2oc3ccccc3c(=O)c2c(=O)n1-c1ccccc1 | inconclusive [cytotoxic, single point] |  |
| COc1ccc2c(c1)[C@H]1[C@H](CO2)[C@H](c2ccccc2)[C@]2(C)C(=O)Nc3cc(Cl)ccc3C(=O)N12 | inactive |  |
| COCc1nnc(NC(=O)CCCOc2ccccc2)s1 | inactive |  |
| Cn1cnc([N+](=O)[O-])c1Sc1nc(N)nc2c1ncn2C1OC(CO)C(O)C1O (stereo not given) | active: 1.3 µM |  |
| CN=c1sc2c(n1C)C(=O)c1ccccc1C2=O | inconclusive [cytotoxic, single point] |  |
| Cc1cc(-c2ccc(S(=O)(=O)N3CCN(c4cccc(C)c4C)CC3)s2)on1 | inactive |  |
| O=C1NC(=S)NC1(c1ccccc1)c1ccccc1 | inactive |  |
| CCOC(=O)c1ccc(NS(=O)C23CC4CC(CC(C4)C2)C3)cc1 (stereo not given) |  | inactive: -3.07% [at 9.24 µM] |

| SMILES | Potency | activity, negative = toxicity |
| --- | --- | --- |
| CCCCNC1=CC(=O)C(=O)c2ccccc21 | active: 23.1 µM |  |
| Cc1cc(NC(=O)COC(=O)c2ccc([N+](=O)[O-])cc2Cl)no1 | inactive |  |
| C[C@@H]1ON(C)[C@H]2C[C@H]3c4[nH]c5ccc(-c6ccc7c(c6)OCO7)cc5c4CCN3C(=O)[C@@H]12 | inconclusive [cytotoxic, single point] |  |
| COc1cc(-c2cc(=O)c3c(C)cc(O)cc3o2)cc(OC)c1OC | inactive |  |
| Cc1onc(-c2ccccc2)c1C(=O)OCCOc1cccc(Cl)c1 | inconclusive [cytotoxic, single point] |  |
| Brc1ccc(CN2CCN(Cc3c[nH]c4ccccc34)CC2)cc1 | active: 20.6 µM |  |
| O=[N+]([O-])c1ccc(/C=N/NC(=S)Nc2ccc(Cl)cc2Cl)s1 | inconclusive [cytotoxic, partial curve] |  |
| CCOC(=O)c1c(N)sc(-c2ccccc2)c1C | inconclusive [cytotoxic, single point] |  |
| COCCCNCCOCCOc1ccc(Cl)cc1C(C)(C)C | inconclusive [cytotoxic, single point] |  |
| CCn1c(SCc2nc3sc(C(=O)O)c(C)c3c(=O)[nH]2)nnc1-c1ccc(Cl)cc1 | inactive |  |
| Cc1ccc(S(=O)(=O)CCOC(=O)CNC(=O)OCc2ccccc2)cc1 | inactive |  |
| COc1cc(-c2cc(=O)c3c(O)c(OC)c(OC)c(OC)c3o2)cc(OC)c1OC | inactive |  |
| OCCNc1nc(C2CC2)nc2c1nnn2Cc1ccccc1Cl | inconclusive [cytotoxic, full curve] |  |
| O=C(NCc1cccs1)C1CCCN(C(=O)Nc2ccc(F)cc2)C1 (stereo not given) | inconclusive [cytotoxic, partial curve] |  |
| O=C(c1ccc2c(c1)OCO2)N1CCN(c2cccc(C(F)(F)F)c2)CC1 | inconclusive [cytotoxic, single point] |  |
| O=C(NCC(=O)N(c1ccccc1)C(C(=O)NC1CCCC1)c1cccnc1)c1cccs1 (stereo not given) |  | inconclusive: 30% |
| CCCCOc1ccc(CN=C(N)N)cc1Cl | inconclusive [cytotoxic, single point] |  |
| COc1ccc(-c2cc(C(=O)N(C)CC(=O)Nc3cccc(F)c3)c3ccccc3n2)cc1OC | inconclusive [cytotoxic, partial curve] |  |
| CCOC(=O)C1(C)CCCCCN1C(=O)c1ccccc1F (stereo not given) | inactive |  |
| Cc1ccc(/C=C/C(=O)OCC(=O)NC(=O)NCc2ccco2)cc1 | inactive |  |
| O=C(NO)c1ccc(C(=O)N(C2CCCCC2)C2CCCCC2)cc1 | inconclusive [cytotoxic, single point] |  |
| CCCCCCSc1cc(-c2nc3ccc(C)cn3c2NCCCC)ccc1OC | inactive |  |
| Cc1cc(Br)cn2c(Cc3cccc(F)c3)c(-c3cccc(Br)c3)nc12 | inconclusive [cytotoxic, single point] |  |
| COCCCNC(=O)Cn1c(=O)oc2cc(S(=O)(=O)N3CC(C)CC(C)C3)ccc21 (stereo not given) | inactive |  |
| COC(=O)c1cc(NC(=O)CC2SC(=Nc3ccccc3)N(CCc3c[nH]c4ccccc34)C2=O)cc(C(=O)OC)c1 (stereo not given) | inconclusive [cytotoxic, partial curve] |  |
